This is an account of results in the BET-seq Pho4 binding data (Le et al. 2018).

This is one part of the list. Values were computed here from the reads of four pooled replicates and scatter widely.

This experiment has as its target T1, Pho4 (S. cerevisiae) (UniProt P07270).
T1 sequence: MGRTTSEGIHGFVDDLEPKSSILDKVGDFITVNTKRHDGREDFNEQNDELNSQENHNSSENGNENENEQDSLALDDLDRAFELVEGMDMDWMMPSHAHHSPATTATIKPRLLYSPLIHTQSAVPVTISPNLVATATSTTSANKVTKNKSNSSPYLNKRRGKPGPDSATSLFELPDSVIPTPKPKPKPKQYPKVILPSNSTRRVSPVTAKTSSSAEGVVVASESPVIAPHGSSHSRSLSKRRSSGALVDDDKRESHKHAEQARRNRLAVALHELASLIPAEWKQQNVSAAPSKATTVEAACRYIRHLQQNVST
Nature of the experiment: relative binding free energy (BET-seq); higher = weaker binding. The following applies: reference: library average.
As for TGGGGCACGTGGCTAG, the “relative binding free energy” value is -0.12 kcal/mol.

Consider GCATGCACGTGGGGAT, for which the “relative binding free energy” value was -0.09 kcal/mol.

TACGTCACGTGAATTG: the “relative binding free energy” value was 0.28 kcal/mol.

Take CTTGGCACGTGGGATC: the “relative binding free energy” value worked out at 0.04 kcal/mol.

For the sequence GCTAGCACGTGCGGGG, the “relative binding free energy” value was -0.09 kcal/mol.

Turning to AGTTGCACGTGAGGGA, the “relative binding free energy” value turned out to be 0.26 kcal/mol.

With GGGTTCACGTGTGATC, the “relative binding free energy” value came out at 0.39 kcal/mol.

Turning to TCGATCACGTGTAGTG, the “relative binding free energy” value is 0.19 kcal/mol.

On to TCATGCACGTGGTTAA, for which the “relative binding free energy” value is -0.07 kcal/mol.

As for TTCTGCACGTGGCTTT, the “relative binding free energy” value was -0.1 kcal/mol.

Regarding AGGTACACGTGTTTAT, the “relative binding free energy” value was -0.01 kcal/mol.

As to TGGAGCACGTGTAGTC, the “relative binding free energy” value is -0.03 kcal/mol.

Consider CAATTCACGTGTTTTA, for which the “relative binding free energy” value was found to be 0.25 kcal/mol.

On to GAGGTCACGTGGTAGT, for which the “relative binding free energy” value is 0.09 kcal/mol.

As for TGTAACACGTGTTTCT, the “relative binding free energy” value was -0.05 kcal/mol.

For TGAGGCACGTGAGTGG, the “relative binding free energy” value came to 0.14 kcal/mol.

Take TGAGTCACGTGTTTGC: the “relative binding free energy” value worked out at 0.09 kcal/mol.

Regarding AGTATCACGTGTGGTA, the “relative binding free energy” value is 0.14 kcal/mol.

For the sequence TTAAACACGTGGGTTT, the “relative binding free energy” value was -0.07 kcal/mol.

With AATTGCACGTGAGTCT, the “relative binding free energy” value was found to be 0.23 kcal/mol.

CGGATCACGTGTGAAT: the “relative binding free energy” value turned out to be 0.43 kcal/mol.

TTGAACACGTGTGGAG: the “relative binding free energy” value is 0.14 kcal/mol.

GACAGCACGTGGTTTT: the “relative binding free energy” value is -0.04 kcal/mol.

GGTGCCACGTGAATTG: the “relative binding free energy” value was 0.16 kcal/mol.

In the case of TCGATCACGTGTTGTG, the “relative binding free energy” value was -0.01 kcal/mol.

Turning to TGTGGCACGTGGGGCG, the “relative binding free energy” value is -0.19 kcal/mol.

As to CGTTGCACGTGATGAA, the “relative binding free energy” value amounted to 0.12 kcal/mol.

Take GCAGGCACGTGTGGTG: the “relative binding free energy” value stood at 0.03 kcal/mol.

On to CTGGTCACGTGATAGG, for which the “relative binding free energy” value came to 0.17 kcal/mol.

For the sequence AATATCACGTGGTGGA, the “relative binding free energy” value stood at 0.08 kcal/mol.

With TATTTCACGTGTTGAT, the “relative binding free energy” value stood at 0.26 kcal/mol.

On to GTTCACACGTGTGGTA, for which the “relative binding free energy” value was 0.07 kcal/mol.

Consider GTGAGCACGTGTCGGC, for which the “relative binding free energy” value came to 0.04 kcal/mol.

With AATTTCACGTGTAAGT, the “relative binding free energy” value is 0.28 kcal/mol.

In the case of GGGGTCACGTGCTACG, the “relative binding free energy” value was 0.04 kcal/mol.

For GTGGTCACGTGTTAGA, the “relative binding free energy” value was found to be 0.25 kcal/mol.

ACGCGCACGTGTTGGT: the “relative binding free energy” value is -0.07 kcal/mol.

For the sequence GCGGTCACGTGTGATA, the “relative binding free energy” value is 0.21 kcal/mol.

In the case of TTTCGCACGTGTGTTG, the “relative binding free energy” value was -0.11 kcal/mol.

As for TGGAGCACGTGTGTGG, the “relative binding free energy” value stood at 0 kcal/mol.

With CGTGGCACGTGGTGTC, the “relative binding free energy” value was -0.2 kcal/mol.

For the sequence GATTACACGTGTGTGT, the “relative binding free energy” value amounted to 0.19 kcal/mol.

For the sequence TGATGCACGTGGGGGT, the “relative binding free energy” value was -0.16 kcal/mol.

With TTTGTCACGTGCTCAG, the “relative binding free energy” value was -0.03 kcal/mol.

Take CCAGTCACGTGATGGG: the “relative binding free energy” value came to 0.19 kcal/mol.

With TGTATCACGTGTCGCG, the “relative binding free energy” value was 0.08 kcal/mol.

On to TCTGACACGTGTGCGT, for which the “relative binding free energy” value is -0.03 kcal/mol.

Consider AGTTGCACGTGCGCTG, for which the “relative binding free energy” value is -0.19 kcal/mol.

Turning to ACAGTCACGTGGTGGA, the “relative binding free energy” value was -0.13 kcal/mol.

On to TGGGTCACGTGTAGAT, for which the “relative binding free energy” value amounted to 0.38 kcal/mol.

For AGTAACACGTGCTGGG, the “relative binding free energy” value came to 0.01 kcal/mol.

Turning to ACCTTCACGTGGGGTT, the “relative binding free energy” value was 0.06 kcal/mol.

Regarding GCTTGCACGTGGGAAT, the “relative binding free energy” value is 0 kcal/mol.

With CAGTTCACGTGGCAGT, the “relative binding free energy” value worked out at 0.31 kcal/mol.

GGGTACACGTGTTCAG: the “relative binding free energy” value was -0.08 kcal/mol.

Turning to AGAATCACGTGGGCGT, the “relative binding free energy” value came out at 0.08 kcal/mol.

Take TGTGCCACGTGGGTTA: the “relative binding free energy” value was -0.19 kcal/mol.

Turning to GTAAACACGTGGGTAA, the “relative binding free energy” value is -0.01 kcal/mol.

Take TCGCGCACGTGGGGGT: the “relative binding free energy” value is -0.34 kcal/mol.

On to TAGTACACGTGTGCGT, for which the “relative binding free energy” value turned out to be 0.12 kcal/mol.

Consider CTTTTCACGTGTATAG, for which the “relative binding free energy” value turned out to be 0.26 kcal/mol.

Turning to GCGGTCACGTGACGGT, the “relative binding free energy” value is 0.22 kcal/mol.

Turning to TCGGGCACGTGGTGTA, the “relative binding free energy” value is -0.22 kcal/mol.

Turning to TTCAACACGTGGGGAT, the “relative binding free energy” value is -0.09 kcal/mol.

Consider TGCCTCACGTGGGGCT, for which the “relative binding free energy” value was determined as 0.13 kcal/mol.

On to CCGTACACGTGGGTGG, for which the “relative binding free energy” value is -0.14 kcal/mol.

Take ATAATCACGTGATGAT: the “relative binding free energy” value amounted to 0.19 kcal/mol.

With TAGTTCACGTGAGTTA, the “relative binding free energy” value was 0.29 kcal/mol.

With TGTCCCACGTGGGGGA, the “relative binding free energy” value was -0.22 kcal/mol.

With GGCTACACGTGGGGGT, the “relative binding free energy” value is 0.02 kcal/mol.

On to ATGATCACGTGAGTCG, for which the “relative binding free energy” value was 0.37 kcal/mol.

On to TTCTTCACGTGAGGCT, for which the “relative binding free energy” value stood at 0.4 kcal/mol.

As for TATGGCACGTGAATTG, the “relative binding free energy” value was 0.15 kcal/mol.

As for AACGACACGTGAAGGG, the “relative binding free energy” value worked out at 0.43 kcal/mol.

On to GGGATCACGTGAAGGG, for which the “relative binding free energy” value amounted to 0.4 kcal/mol.

In the case of AATTACACGTGGTGGA, the “relative binding free energy” value stood at 0.08 kcal/mol.

Turning to GAGGGCACGTGTGTAA, the “relative binding free energy” value came out at 0.04 kcal/mol.

For AGGATCACGTGTGTGT, the “relative binding free energy” value was found to be 0.24 kcal/mol.

Consider AAGATCACGTGTTATG, for which the “relative binding free energy” value came out at 0.15 kcal/mol.

For the sequence GATTTCACGTGTGACT, the “relative binding free energy” value worked out at 0.47 kcal/mol.

With GGAGACACGTGTTTGG, the “relative binding free energy” value is -0.03 kcal/mol.

Consider TGGTACACGTGTAGGC, for which the “relative binding free energy” value was 0.11 kcal/mol.

As to TATAACACGTGATCGG, the “relative binding free energy” value is 0.17 kcal/mol.

Regarding GGGTTCACGTGTCTGA, the “relative binding free energy” value stood at 0.37 kcal/mol.

For the sequence GTAATCACGTGGGAGG, the “relative binding free energy” value is 0.19 kcal/mol.

On to GGAGACACGTGGGGTG, for which the “relative binding free energy” value is -0.06 kcal/mol.

With CGTCTCACGTGGGCGG, the “relative binding free energy” value stood at 0.03 kcal/mol.

As for ATGTGCACGTGCTATT, the “relative binding free energy” value is -0.07 kcal/mol.

Turning to GGGAACACGTGATGTG, the “relative binding free energy” value is 0.25 kcal/mol.

For the sequence AGCGGCACGTGTAATA, the “relative binding free energy” value was 0.24 kcal/mol.

As to GCGCACACGTGAGGGG, the “relative binding free energy” value is 0.12 kcal/mol.

Consider AAAAACACGTGGGGTA, for which the “relative binding free energy” value was -0.22 kcal/mol.

For CGTCACACGTGGGTGG, the “relative binding free energy” value is -0.07 kcal/mol.

Consider TTCGGCACGTGGATTG, for which the “relative binding free energy” value is -0.09 kcal/mol.

As for AAACGCACGTGGTGTG, the “relative binding free energy” value was -0.14 kcal/mol.

CGGGGCACGTGAGTCT: the “relative binding free energy” value came to 0.19 kcal/mol.

Consider GTCGACACGTGTATTG, for which the “relative binding free energy” value was 0.14 kcal/mol.

As to TCTGTCACGTGGGGTA, the “relative binding free energy” value was -0.04 kcal/mol.

For GTTGCCACGTGTCGTT, the “relative binding free energy” value stood at 0.03 kcal/mol.

As to GTGTACACGTGGAGGT, the “relative binding free energy” value stood at 0.2 kcal/mol.

With CGGAGCACGTGTGCGT, the “relative binding free energy” value is -0.02 kcal/mol.

Take GTAGGCACGTGGAACG: the “relative binding free energy” value worked out at 0.03 kcal/mol.

Take TGGCACACGTGGTATT: the “relative binding free energy” value is -0.06 kcal/mol.

As to TGGTTCACGTGCTGGT, the “relative binding free energy” value is 0.23 kcal/mol.

For the sequence TGCTACACGTGAATTG, the “relative binding free energy” value is 0.42 kcal/mol.

For TAATGCACGTGCTGGA, the “relative binding free energy” value is -0.11 kcal/mol.

For CGGGTCACGTGAGTTG, the “relative binding free energy” value was 0.31 kcal/mol.

Regarding TGGAACACGTGTGTGA, the “relative binding free energy” value is -0.05 kcal/mol.

In the case of GTGTTCACGTGTCTGT, the “relative binding free energy” value worked out at 0.34 kcal/mol.

As to CGTGGCACGTGAAGAG, the “relative binding free energy” value came out at 0.06 kcal/mol.

For CTATGCACGTGTTTGA, the “relative binding free energy” value was -0.12 kcal/mol.

As for CGGATCACGTGATGTA, the “relative binding free energy” value was found to be 0.32 kcal/mol.

Regarding GTCGCCACGTGTGGGT, the “relative binding free energy” value was -0.03 kcal/mol.

As to TGGCGCACGTGGAATT, the “relative binding free energy” value is -0.06 kcal/mol.

For the sequence TCGGGCACGTGGTATA, the “relative binding free energy” value was -0.24 kcal/mol.
